{"source": "PubChem BioAssay AID894", "about": "(National Center for Advancing Translational Sciences (NCATS), 2007)", "note": "Values joined by “and” are separate entries in the source; they are usually repeats but may differ in a detail not shown here. Equal values may be shown once. Among all 150,000 compounds or so, about 6,500 (4.3%) were called active. Inconclusive results, whose numbers are uncertain, are shown with a selection of clear calls. Calls follow the shape of the dose curve; as a rule, active = well fitted inhibition curve with a large enough effect (not every such curve was filed as active); inconclusive = small, poorly fitted or top-dose-only effect, or another doubt; inactive = no such curve, though single readings can be large or run the other way. A potency beside an inconclusive call is a rough fit, not a confirmed value. % is scaled to controls: 0 for no effect and ±100 for the full control effect; potency is read from the fitted curve at half-maximal effect; tags tell the direction and shape of the fitted curve.", "data": [{"molecular_target": "15-hydroxyprostaglandin dehydrogenase [NAD(+)] (Homo sapiens) (UniProt P15428)", "sequence (P15428 whole entry, looked up)": "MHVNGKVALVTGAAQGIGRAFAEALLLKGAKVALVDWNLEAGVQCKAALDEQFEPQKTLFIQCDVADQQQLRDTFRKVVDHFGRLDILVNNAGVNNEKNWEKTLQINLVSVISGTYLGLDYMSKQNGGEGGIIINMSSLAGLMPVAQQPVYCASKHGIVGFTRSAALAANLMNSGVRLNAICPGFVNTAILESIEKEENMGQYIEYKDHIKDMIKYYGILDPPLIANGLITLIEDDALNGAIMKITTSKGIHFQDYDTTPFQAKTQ", "experiment": "qHTS Assay for Inhibitors of HPGD (15-Hydroxyprostaglandin Dehydrogenase)", "conditions": "purified HPGD, NADH fluorescence kinetic, PGE2 substrate; activity change, negative = inhibition: hits give low values", "outline": "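NADH formation kinetics: reaction with 30 uM PGE2 and 1 mM NAD+ (final), 20 nM enzyme, Tris-HCl pH 8 with Tween 20, after 15 min compound preincubation at room temperature. Fluorescence change, last versus first of five reads.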", "values": [{"smiles": "COc1ccc(/C=C(\\C#N)C(=O)OCC(=O)NCc2ccc(Cl)cc2)cc1", "Potency": "inconclusive: 22.4 µM [inhibitor, partial curve]"}, {"smiles": "Nc1cc(-c2nc3ncccc3o2)ccc1Cl", "Potency": "inconclusive: 31.6 µM [inhibitor, partial curve]"}, {"smiles": "C/C(=N\\NC(=O)Cc1cccn1C)c1cccc2ccccc12", "Potency": "inconclusive: 17.8 µM [inhibitor, partial curve]"}, {"smiles": "O=C(NCc1ccco1)c1cccn2c(=O)c3cc4ccccc4cc3nc12", "activity change, negative = inhibition": "inactive: -15.5%"}, {"smiles": "O=C1CC(c2ccc3c(c2)OCO3)c2cc(O)ccc2O1", "note": "(stereo not drawn)", "Potency": "active: 39.8 µM"}, {"smiles": "COCc1c(C(=O)OCC(=O)N2c3ccccc3NC(=O)C2(C)C)oc2ccccc12", "Potency": "inconclusive: 35.5 µM [inhibitor, single point]"}, {"smiles": "Cc1cc(Cl)cc(Cl)c1OCCOc1cccc2cccnc12", "Potency": "inconclusive: 28.2 µM [inhibitor, single point]"}, {"smiles": "COc1ccc(N2CCN(c3oc(-c4ccccc4OC)nc3C#N)CC2)cc1", "Potency": "inconclusive: 35.5 µM [inhibitor, partial curve]"}, {"smiles": "Oc1ccc(/C=N/Nc2cc(N3CCOCC3)nc(N3CCOCC3)n2)cc1O", "activity change, negative = inhibition": "inactive: -19.7%"}, {"smiles": "CC1CC(=O)C=C(O)C1C(=O)OC(C)(C)C", "note": "(stereo not drawn)", "activity change, negative = inhibition": "inactive: -2.88%"}, {"smiles": "OC(CN1CCNCC1)Cn1c2ccc(Br)cc2c2cc(Br)ccc21", "note": "(stereo not drawn)", "activity change, negative = inhibition": "inactive: -8.57%"}, {"smiles": "NC(=O)c1ccccc1NC(=O)/C=C/C(=O)O", "Potency": "inconclusive: 15.8 µM [inhibitor, partial curve]"}, {"smiles": "O=C(Nc1c(C(=O)Nc2cccc(F)c2)oc2ccccc12)c1ccc2c(c1)OCO2", "Potency": "inconclusive: 28.2 µM [inhibitor, partial curve]"}, {"smiles": "O=C1CCC(=O)N1c1nc2n(n1)C(c1ccccc1)C=C(c1ccc(Br)cc1)N2", "note": "(stereo not drawn)", "Potency": "inconclusive: 20 µM [inhibitor, partial curve]"}, {"smiles": "O=C(CN1CCN(c2ccc(O)cc2)CC1)NC(c1ccccc1)c1ccccc1", "Potency": "inconclusive: 39.8 µM [inhibitor, single point]"}, {"smiles": "COc1cc2nc(N3CCNCC3)nc(N)c2cc1OC", "Potency": "inconclusive: 31.6 µM [inhibitor, partial curve]"}, {"smiles": "CCCCn1nc2cc(C(=O)NCc3cc(C(F)(F)F)cc(C(F)(F)F)c3)ccc2c1OC", "Potency": "inconclusive: 31.6 µM [inhibitor, partial curve]"}, {"smiles": "COC(=O)c1c(C)c2c(C)cc3ccccn3c-2c1C(=O)OC", "activity change, negative = inhibition": "inactive: -4.98%"}, {"smiles": "CCOC(=O)CSc1c(-c2ccccc2)c2cc(Cl)ccc2[nH]c1=O", "Potency": "active: 17.8 µM"}, {"smiles": "O=C(N/N=C1/C(=O)c2cccc3cccc1c23)c1ccc(Cl)cc1", "Potency": "active: 28.2 µM"}, {"smiles": "CCc1nc2c(n1O)CCc1nonc1-2", "activity change, negative = inhibition": "inactive: -10.1%"}, {"smiles": "COC(=O)c1ccc2c(=O)n(CCCCCC(=O)NCc3ccc4c(c3)OCO4)c(=O)[nH]c2c1", "Potency": "inconclusive: 28.2 µM [inhibitor, partial curve]"}, {"smiles": "Cc1cc2n(n1)C(c1ccc(N(C)C)cc1)Nc1ccccc1-2", "note": "(stereo not drawn)", "Potency": "inconclusive: 31.6 µM [inhibitor, partial curve]"}, {"smiles": "CCCCNc1ncnc2c1cnn2-c1ccc(Cl)cc1", "Potency": "inconclusive: 15.8 µM [inhibitor, partial curve]"}, {"smiles": "O=C(Nc1nnc(-c2ccc(Cl)cc2)o1)c1nc2ccccc2s1", "Potency": "inconclusive: 31.6 µM [inhibitor, partial curve, poor fit]"}, {"smiles": "Cc1ccc(N2CC(C(=O)OCc3ccc([N+](=O)[O-])cc3)CC2=O)cc1", "note": "(stereo not drawn)", "Potency": "active: 25.1 µM"}, {"smiles": "CCCCNC(=O)c1ccc2c(c1)ncn2C1CCCC1", "Potency": "active: 8.91 µM"}, {"smiles": "N#CC1=C(SCc2ccccc2Cl)NC(=O)C(C(N)=O)C1", "note": "(stereo not drawn)", "activity change, negative = inhibition": "inactive: -9.24%"}, {"smiles": "COc1ccc(CCN(C)CCCN2CCc3cc(OC)c(OC)cc3CC2=O)cc1OC", "activity change, negative = inhibition": "inactive: -8.9% and inactive: -6%"}, {"smiles": "CC(=O)c1cnc2cc(-c3ccccc3)nn2c1C", "Potency": "inconclusive: 35.5 µM [inhibitor, single point]"}, {"smiles": "NC[C@@H]1O[C@H](O[C@H]2[C@H](O)[C@H](O[C@@H]3O[C@H](CO)[C@@H](O)[C@H](N)[C@@H]3O)[C@@H](N)C[C@H]2N)[C@@H](O)[C@H](O)[C@@H]1O", "activity change, negative = inhibition": "inactive: 3.18%"}, {"smiles": "CCOC(=O)c1ccc(Nc2cc(C)nc3ncnn23)cc1", "activity change, negative = inhibition": "inactive: -24.3%"}, {"smiles": "c1ccc(-n2nnnc2-c2cnc(-c3ccncc3)nc2-c2cccs2)cc1", "Potency": "inconclusive: 31.6 µM [inhibitor, partial curve]"}, {"smiles": "Cc1cc(NC(=O)c2ccccc2NS(=O)(=O)c2c(C)c(C)cc(C)c2C)no1", "Potency": "inconclusive: 17.8 µM [inhibitor, partial curve]"}, {"smiles": "O=c1ccnc(S/C=C/c2ccccc2)[nH]1", "Potency": "inconclusive: 12.6 µM [inhibitor, partial curve]"}, {"smiles": "O=C(C[C@@H](c1ccccc1)N1CCCCC1)c1ccccc1", "Potency": "inconclusive: 3.98 µM [inhibitor, single point]"}, {"smiles": "Cc1ccc(-c2cc(C)nc3ncnn23)cc1", "Potency": "inconclusive: 28.2 µM [inhibitor, partial curve]"}, {"smiles": "Cc1ccc2nc(NC(=O)c3ccc(Cn4cc(Cl)cn4)o3)sc2c1", "Potency": "inconclusive: 35.5 µM [inhibitor, single point]"}, {"smiles": "O=c1ccc2cc(O)c(O)cc2o1", "Potency": "inconclusive: 14.1 µM [inhibitor, partial curve] and inconclusive: 31.6 µM [inhibitor, partial curve] and inconclusive: 28.2 µM [inhibitor, partial curve]"}, {"smiles": "O=C(Sc1nnc(-c2ccccc2)o1)N1c2ccccc2Sc2ccccc21", "Potency": "active: 14.1 µM"}, {"smiles": "O=[N+]([O-])c1ccc(N/N=C/c2cn(-c3ccccc3)nc2-c2ccccc2)cc1", "Potency": "inconclusive: 31.6 µM [inhibitor, single point]"}, {"smiles": "COc1ccc(-n2c(N)c(C(=O)NCc3ccco3)sc2=S)cc1", "Potency": "inconclusive: 3.55 µM [inhibitor, partial curve, poor fit]"}, {"smiles": "O=c1c(O)c(-c2cccc(O)c2)oc2ccccc12", "Potency": "active: 28.2 µM"}]}]}
